The record followed here is PMC5538626, “Structural and functional analysis of the GABARAP interaction motif (GIM)” (EMBO Reports, 2017).

By UniProt entry, the sequences of proteins in these tests, tags left out. Where a name states a change or a piece, a line headed by the entry shows the natural chain unless it says otherwise. Residues count along the entry.
UniProt Q9BXW4, residues 1-126: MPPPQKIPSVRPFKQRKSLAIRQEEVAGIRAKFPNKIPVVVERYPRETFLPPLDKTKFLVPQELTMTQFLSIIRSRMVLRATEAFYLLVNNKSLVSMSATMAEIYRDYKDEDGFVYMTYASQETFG
UniProt Q8TDY2: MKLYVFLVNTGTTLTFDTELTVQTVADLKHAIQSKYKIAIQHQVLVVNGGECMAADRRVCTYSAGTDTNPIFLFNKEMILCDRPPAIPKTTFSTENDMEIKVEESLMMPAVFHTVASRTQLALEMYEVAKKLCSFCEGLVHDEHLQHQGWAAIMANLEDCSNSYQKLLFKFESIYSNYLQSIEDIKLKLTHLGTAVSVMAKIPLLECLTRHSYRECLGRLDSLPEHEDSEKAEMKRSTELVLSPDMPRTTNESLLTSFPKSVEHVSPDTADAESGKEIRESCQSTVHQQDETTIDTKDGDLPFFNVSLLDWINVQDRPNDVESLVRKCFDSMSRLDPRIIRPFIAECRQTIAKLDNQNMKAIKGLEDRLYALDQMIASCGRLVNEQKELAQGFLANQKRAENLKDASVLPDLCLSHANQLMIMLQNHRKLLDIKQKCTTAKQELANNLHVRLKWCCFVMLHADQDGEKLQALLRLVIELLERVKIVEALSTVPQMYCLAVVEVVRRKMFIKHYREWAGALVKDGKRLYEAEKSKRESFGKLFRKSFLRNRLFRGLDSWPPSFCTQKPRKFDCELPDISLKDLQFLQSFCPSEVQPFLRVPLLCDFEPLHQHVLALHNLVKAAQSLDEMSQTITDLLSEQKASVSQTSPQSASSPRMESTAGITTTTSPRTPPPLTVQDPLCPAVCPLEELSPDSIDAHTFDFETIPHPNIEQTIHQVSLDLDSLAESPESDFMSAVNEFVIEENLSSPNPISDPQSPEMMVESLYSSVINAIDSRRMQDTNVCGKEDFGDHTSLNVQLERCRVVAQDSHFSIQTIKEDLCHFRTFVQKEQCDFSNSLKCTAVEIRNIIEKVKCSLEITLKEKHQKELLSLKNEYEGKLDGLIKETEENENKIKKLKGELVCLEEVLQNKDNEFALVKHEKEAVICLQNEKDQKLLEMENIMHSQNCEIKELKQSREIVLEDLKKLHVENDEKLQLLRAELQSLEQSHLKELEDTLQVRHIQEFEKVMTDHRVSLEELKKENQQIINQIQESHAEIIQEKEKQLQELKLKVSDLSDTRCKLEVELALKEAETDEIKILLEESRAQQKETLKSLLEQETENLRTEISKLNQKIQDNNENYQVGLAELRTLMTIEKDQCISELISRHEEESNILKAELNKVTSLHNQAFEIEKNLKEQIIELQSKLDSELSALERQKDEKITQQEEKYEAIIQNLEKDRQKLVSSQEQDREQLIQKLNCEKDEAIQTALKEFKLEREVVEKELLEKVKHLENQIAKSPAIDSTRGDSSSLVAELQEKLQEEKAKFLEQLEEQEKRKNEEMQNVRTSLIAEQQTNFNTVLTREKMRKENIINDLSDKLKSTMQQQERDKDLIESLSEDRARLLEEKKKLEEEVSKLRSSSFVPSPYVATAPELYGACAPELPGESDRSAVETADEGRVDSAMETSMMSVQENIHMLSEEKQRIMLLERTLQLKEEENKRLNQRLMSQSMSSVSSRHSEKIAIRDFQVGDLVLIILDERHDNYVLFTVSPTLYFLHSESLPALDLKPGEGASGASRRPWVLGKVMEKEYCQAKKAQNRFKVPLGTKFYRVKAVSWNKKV
UniProt Q7TSI1: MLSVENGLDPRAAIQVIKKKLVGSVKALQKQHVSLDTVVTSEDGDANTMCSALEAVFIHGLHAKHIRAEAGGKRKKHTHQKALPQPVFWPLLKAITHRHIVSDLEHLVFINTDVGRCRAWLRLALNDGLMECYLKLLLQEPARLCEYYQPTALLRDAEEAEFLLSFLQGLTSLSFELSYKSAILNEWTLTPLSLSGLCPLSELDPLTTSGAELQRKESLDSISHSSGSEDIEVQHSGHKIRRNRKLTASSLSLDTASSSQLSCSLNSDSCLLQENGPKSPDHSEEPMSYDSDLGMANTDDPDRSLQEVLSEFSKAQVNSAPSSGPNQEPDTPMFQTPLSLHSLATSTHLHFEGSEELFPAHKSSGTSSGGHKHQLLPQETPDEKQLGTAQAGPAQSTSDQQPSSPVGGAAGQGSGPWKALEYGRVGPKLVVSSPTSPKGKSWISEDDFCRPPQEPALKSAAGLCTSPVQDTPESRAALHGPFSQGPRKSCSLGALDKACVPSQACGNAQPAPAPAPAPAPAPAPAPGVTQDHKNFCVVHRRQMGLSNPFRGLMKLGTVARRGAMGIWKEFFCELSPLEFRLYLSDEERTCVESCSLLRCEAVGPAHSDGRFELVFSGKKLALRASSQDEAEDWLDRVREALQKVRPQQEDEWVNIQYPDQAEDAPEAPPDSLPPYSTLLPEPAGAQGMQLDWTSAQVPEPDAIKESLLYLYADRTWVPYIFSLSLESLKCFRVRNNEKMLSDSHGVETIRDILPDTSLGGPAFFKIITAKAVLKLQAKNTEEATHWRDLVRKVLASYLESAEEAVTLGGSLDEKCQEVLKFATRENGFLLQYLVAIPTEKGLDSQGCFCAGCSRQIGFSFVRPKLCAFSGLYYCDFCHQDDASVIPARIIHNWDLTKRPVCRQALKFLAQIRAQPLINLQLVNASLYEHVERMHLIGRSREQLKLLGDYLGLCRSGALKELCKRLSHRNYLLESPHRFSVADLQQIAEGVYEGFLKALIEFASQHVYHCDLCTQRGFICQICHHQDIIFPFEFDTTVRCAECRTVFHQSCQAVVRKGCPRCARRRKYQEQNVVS

Changes are numbered by the printed parent chain. No constants are given. Whether binding was seen depends on the method and setting. For part of these data: Binding seen in cells or lysates may run through a third protein. Some results given as binding are weak or reduced against the parent protein; the word gives no strength. For part of these data: Tags and fused reporters may be left off the sequences shown.

Assay [1] concerns the target T1, Biotinylated PLEKHM1-LIR V638L peptide (…).
T1 sequence (peptide, biotin (position not stated)): EDEWVNLQY
In words: peptide or protein array; biotinylated peptides immobilised on streptavidin-coated 96-well plates, 1 uM His6-tagged mATG8 in PBS, 0.1% Tween-20, 1% BSA, 1 h at 8 C, detected with anti-His-HRP and TMB at 450 nm; expressed relative to the WT LIR peptide; both purified.

In assay [2] the target is T2, Biotinylated PLEKHM1-LIR V638I peptide (…).
T2 sequence (peptide, biotin (position not stated)): EDEWVNIQY
The assay is described as above.

In assay [3] the target is PLEKHM1‐mutLIR peptide (…), biotinylated. In words: ELISA; called peptide array: biotinylated peptides immobilised on streptavidin-coated 96-well plates; 1 μM His6-mATG8 in PBS, 0.1% Tween-20, 1% BSA, 1 h, 8°C; anti-His-HRP, TMB, absorbance at 450 nm; both purified.
In assay [4] the target is PLEKHM1‐LIR W635A peptide (biotinylated 9-mer) (UniProt Q9Y4G2). Described as above.
The target in assay [5] is PLEKHM1‐LIR V638A peptide (biotinylated 9-mer) (UniProt Q9Y4G2). Described as above.
The target in assay [6] is PLEKHM1‐LIR N637P peptide (biotinylated 9-mer) (UniProt Q9Y4G2). The description is as above.
The target of assay [7] is PLEKHM1‐LIR N637G peptide (biotinylated 9-mer) (UniProt Q9Y4G2). The description is as above.
Assay [8] has as its target PLEKHM1‐LIR V636A peptide (biotinylated 9-mer) (UniProt Q9Y4G2). The assay is described as above.
Assay [9] has as its target GFP‐LC3C (human) (UniProt Q9BXW4). In words: co-IP; HEK293T cells co-expressing GFP-mATG8 and PLEKHM1-WT-Flag; GFP-Trap beads; anti-Flag blot.
Assay [10] has as its target 3xFlag‐FIP200 E703V/I705V (human) (UniProt Q8TDY2). In words: co-IP; HEK293 cells overexpressing 3xFlag-FIP200 forms; anti-Flag beads; blot for endogenous GABARAP and LC3B.
In assay [11] the target is T3, GFP‐FUNDC1 E19V (UniProt Q8IVP5).
T3 sequence: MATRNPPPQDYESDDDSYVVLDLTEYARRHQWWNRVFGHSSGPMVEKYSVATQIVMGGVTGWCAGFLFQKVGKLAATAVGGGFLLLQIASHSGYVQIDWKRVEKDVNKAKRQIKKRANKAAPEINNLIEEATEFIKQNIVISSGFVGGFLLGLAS
In words: co-IP; HEK293 cells overexpressing GFP-FUNDC1 forms, vehicle (DMSO) or 20 μM CCCP for 2 h; anti-GFP beads; blot for endogenous GABARAP and LC3B.

The target in assay [12] is T4, GFP‐FUNDC1 L21V (UniProt Q8IVP5).
T4 sequence: T3 sequence with V19E, L21V
The assay is described as above.

The target in assay [13] is T5, GFP‐FUNDC1 E19V/L21V (UniProt Q8IVP5).
T5 sequence: T3 sequence with L21V
Described as above.

The target in assay [14] is endogenous PLEKHM1 (mouse embryonic fibroblasts) (mouse (endogenous in MEFs)) (UniProt Q7TSI1). In words: condition: only cells treated with vehicle (DMSO) only, without Ku + CQ; co-IP; as a9 but cells treated with vehicle (DMSO) only.
Assay [15] shares this target. In words: co-IP; mouse embryonic fibroblasts, 4 h KU-0063794 (10 μM) plus chloroquine (20 μM); NP-40 lysis buffer; endogenous PLEKHM1 immunoprecipitated; blot for endogenous LC3B and GABARAP.
Assay [16] has as its target GFP‐LC3A (human) (UniProt Q9H492). In words: co-IP; HeLa cells overexpressing GFP-mATG8, 4 h KU-0063794 (10 μM) plus chloroquine (20 μM); GFP-Trap beads; blot for endogenous proteins.
The target of assay [17] is GFP‐GABARAP‐L2 (human) (UniProt P60520). The assay is described as above.
Assay [18] deals with GFP‐LC3C (human) (UniProt Q9BXW4). The assay is described as above.

As for “6xHis-tagged GABARAP (from UniProt O95166 1-117)”, the binding entry in [1] and in assay [2] was “binds” each time.

“6xHis-tagged GABARAP-L2 (from UniProt P60520 1-117)”: the binding entry in assay [1] and in assay [2] was “binds” in each case.

With “6xHis‐tagged GABARAP (from UniProt O95166 1-117)”, in [3], the binding entry is “no binding (tested: 1 μM)”.

Take “6xHis‐tagged GABARAP‐L2 (from UniProt P60520 1-117)”: the binding entry in [3] and in assay [4] was “no binding (tested: 1 μM)” in each case.

Turning to “6xHis‐tagged LC3A (from UniProt Q9H492 1-121)”, the binding entry in [3] was “no binding (tested: 1 μM)”.

Consider “6xHis‐tagged LC3C (from UniProt Q9BXW4 1-126)”, for which the binding result in assay [3], in assay [5], in [4], in assay [6], in [7] and in [8] was “no binding (tested: 1 μM)” each time.

“PLEKHM1‐WT‐Flag (from UniProt Q9Y4G2 1-1056)”: the binding entry in [9] is “binds”.

For the substance “endogenous GABARAP (HEK293) (from UniProt O95166 1-117)”, the binding result in assay [10], in assay [11], in assay [12] and in [13] was “binds” in each case.

As to “endogenous GABARAP (mouse embryonic fibroblasts) (from UniProt Q9DCD6 1-117)”, the values for the binding result in assay [14] and in assay [15] were “no binding” and “binds”, respectively.

On to “endogenous p62/SQSTM1 (HeLa) (from UniProt Q13501 1-440)”, for which the binding result in [16], in assay [17] and in [18] was “binds” throughout.
